Hit rate of the full screen: of about 340,000 compounds, about 6,900 (2%) were called active. Rule as the data show it: active = inhibition above about 30%; inactive = below that, where a call was filed. This is a selection; strong and weak results do not stand in their true shares. Entries without a call were filed so in the source.
These compounds were tested against D(2) dopamine receptor (Homo sapiens) (UniProt P14416) (assay: HTS Assay for Allosteric Antagonists of the Human D2 Dopamine Receptor: Primary Screen for Antagonists). Details: HEK293 TREx D2 cells, calcium flux, dopamine EC80; at 10 µM; stronger effect = higher value.
Chain of UniProt P14416 (P14416 whole entry, looked up): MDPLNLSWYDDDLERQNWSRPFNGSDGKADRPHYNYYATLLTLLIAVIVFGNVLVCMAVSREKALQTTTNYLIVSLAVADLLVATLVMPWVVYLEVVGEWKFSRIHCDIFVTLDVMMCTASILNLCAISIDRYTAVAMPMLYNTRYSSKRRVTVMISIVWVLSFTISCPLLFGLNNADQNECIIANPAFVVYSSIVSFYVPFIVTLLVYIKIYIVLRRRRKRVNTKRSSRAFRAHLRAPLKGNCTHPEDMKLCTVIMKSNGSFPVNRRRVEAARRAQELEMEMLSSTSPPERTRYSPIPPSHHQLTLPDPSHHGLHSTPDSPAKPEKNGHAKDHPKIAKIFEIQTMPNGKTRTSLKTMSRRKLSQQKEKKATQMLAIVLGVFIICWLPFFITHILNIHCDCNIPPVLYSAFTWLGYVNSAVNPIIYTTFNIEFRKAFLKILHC
How it was run: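 Read-out: kinetic calcium fluorescence (1 cycle/s) in inducible HEK293 T-REx D2 cells after an EC80 dopamine addition that followed 180 s compound preincubation. Loss of the dopamine response indicates antagonism.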
Also: 0% is about no effect.

Going from `COc1ccc(N2CC(NC(=O)c3ccc4c(c3)OCO4)CC2=O)cc1OC` (stereo not drawn) to `CC(=O)c1cc2c(cc1N/C(=N/S(=O)(=O)c1ccccc1)c1ccc(Cl)cc1)OCO2`, the inhibition falls from 21.9% to -5.92%.

Compared with `Cc1ccc(Cl)cc1N1CCN(C(=O)c2cccn2-c2nnc(N3CCCCC3)s2)CC1`, `O=C(NCc1ccccc1Cl)c1cccn1-c1nnc(N2CCCCC2)s1` is lower in inhibition: 13.1% for the first, -7.25% for the second.

First: CC1C(=O)Nc2ccc(S(=O)(=O)Nc3ccccc3Br)cc2NC1=O (stereo not drawn)
Second: CC(=O)c1ccccc1NS(=O)(=O)c1cc2c(cc1C)NC(=O)CO2
The inhibition of the first is higher: 17.3% for the first, 12.5% for the second.

First: COc1cc(Cl)ccc1OC(=O)c1cn(-c2ccccc2OC)c(=O)c2ccccc12
Second: COc1ccc(OC)c(CNC(=O)c2ccccc2NC(=O)c2nsc3ccccc23)c1
The inhibition of the first is higher: 1.9% for the first, -6.92% for the second.

First: CC(C)CCNC(=O)c1ccc(Cn2c(SCC(=O)NC(C)C)nc3ccccc3c2=O)cc1
Second: CCC(=O)Nc1ccc(C)cc1-c1nc2ccccc2n(C(C)C(=O)Nc2ccccc2CC)c1=O (stereo not drawn)
The inhibition of the first is lower: 17.6% for the first, 24.4% for the second.

First: Cc1ccc(-n2nc(C(=O)N3CCN(c4ccccc4F)CC3)c3c4ccccc4n(C)c3c2=O)cc1
Second: CCC(C(=O)N1CCN(c2cc(Cl)ccc2C)CC1)n1nc(C)c2sc3ccccc3c2c1=O (stereo not drawn)
The inhibition of the first is lower: -0.721% for the first, 14.7% for the second.

Going from `COc1cccc(CNC(=O)CN2N=C(c3ccc(C)cc3)CCC2=O)c1` to `Cc1ccc(CNC(=O)NC2COc3ccccc3C2)cc1` (stereo not drawn), the inhibition falls from 11.3% to 3.03%.

Going from `Cc1ccc(N(C)S(=O)(=O)c2ccc3c(c2)C(C)(C)C(=O)N3C)cc1C` to `Cc1ccc(-n2ccnc(NCCc3ccc(S(N)(=O)=O)cc3)c2=O)c(C)c1`, the inhibition rises from -4.49% to 1.19%.

First: CCN(CC)CCCNC(=O)CCCn1c(=O)[nH]c2ccc(Br)cc2c1=O
Second: CCN(CC)CCNC(=O)c1ccc(-c2nc(CS(=O)(=O)c3ccc(C)cc3)c(C)o2)cc1
The inhibition of the first is higher: 14% for the first, -2.24% for the second.

Going from `CCOc1ccc(-c2noc(CSc3nnc(-c4ccccc4)n3-c3ccccc3)n2)cc1` to `COc1ccccc1OCCn1c(C(C)Oc2ccccc2)nc2ccccc21` (stereo not drawn), the inhibition rises from 0.931% to 7.69%.

First: CN1C(=O)c2ccccc2Sc2ccc(NC(=O)Cc3c(F)cccc3Cl)cc21
Second: Cc1ccc(C2=Nc3ccccc3N(CC(=O)Nc3ccccc3C)C(=O)C2)cc1C
The inhibition of the first is lower: -18.2% for the first, 2.06% for the second.

First: CCC(CC)C(=O)Nc1ccc(C(=O)OCc2cc(=O)n3nc(C4CC4)sc3n2)cc1
Second: CCOC(=O)c1ccc(NC(=O)C2Cc3ccccc3C(=O)O2)cc1 (stereo not drawn)
The inhibition of the first is higher: 9.7% for the first, -4.33% for the second.

First: Cc1ccccc1N(C)C(=O)c1noc2c1COc1ccccc1-2
Second: Cc1onc(-c2ccccc2Cl)c1C(=O)Oc1ccc(Br)cc1
The inhibition of the first is higher: 12.5% for the first, 3.22% for the second.

Going from `Cc1cccc(-c2nc(SCC(=O)NCC3CCCO3)c3c(=O)n(C)c(=O)n(C)c3n2)c1` (stereo not drawn) to `Cc1ccc(N2CCn3c2nc2c3c(=O)n(CCCc3ccccc3)c(=O)n2C)cc1`, the inhibition rises from -8.72% to 11.6%.

Compared with `CCOC(=O)c1ccc(NC(=O)Nc2ccc3snnc3c2)cc1`, `Cc1ccc(-n2nnnc2CNC(=O)c2ccc(F)cc2)cc1C` is higher in inhibition: -8.45% for the first, 16.3% for the second.

Compared with `C#CCn1c(/C=C/c2ccc(Cl)cc2)nc2ccccc21`, `CC(=O)Nc1ccc(C)cc1-c1nc2ccccc2n(CC(=O)c2ccc(Cl)cc2)c1=O` is lower in inhibition: 17.1% for the first, 15.7% for the second.

First: CCN(c1ccc(OC)cc1)S(=O)(=O)c1nnc(NC(=O)COc2ccc(F)cc2)s1
Second: COc1ccc(C(=O)NCC(c2cccs2)S(=O)(=O)c2ccc(F)c(C)c2)cc1 (stereo not drawn)
The inhibition of the first is lower: 3.48% for the first, 6.72% for the second.

First: CC(C)CC(=O)NCC(c1ccc2c(c1)OCO2)N1CCN(c2ccccc2F)CC1 (stereo not drawn)
Second: CCOc1ccccc1C(=O)N1CCN(CCc2ccccn2)CC1
The inhibition of the first is higher: 1.67% for the first, -13.1% for the second.

Compared with `COc1ccc(CCNC(=O)c2c(C)oc3nc(C)nc(N4CCOCC4)c23)cc1OC`, `COc1ccc(-c2cc(C(F)(F)F)n3nc(C(=O)O)c(Cl)c3n2)cc1OC` is lower in inhibition: 4.01% for the first, -1.69% for the second.

First: Cc1cc(C)n(-c2nc3ccccc3nc2Nc2cccc(C(=O)NCCc3ccccc3)c2)n1
Second: Cc1cc(C)c(NC(=O)Cn2c(=O)n(CCc3ccccc3)c(=O)c3ccccc32)c(C)c1
The inhibition of the first is lower: -3.85% for the first, 18.4% for the second.

Going from `Cc1ccc(NC(=O)C2CCCN(S(=O)(=O)c3cccc4cccnc34)C2)c(Br)c1` (stereo not drawn) to `COc1ccccc1-c1nn2c(=O)cc(CN3CCN(S(=O)(=O)c4ccc(C)cc4)CC3)nc2s1`, the inhibition falls from 13.1% to -3.23%.

Going from `Cn1cc(S(=O)(=O)N2CCCCCC2)cc1C(=O)NCc1ccc(Cl)cc1` to `CC(C)(C)OC(=O)N1CCC(c2c(C(=O)NCCN3CCCC3)cnn2-c2ccc(Cl)cc2)CC1`, the inhibition rises from -13.5% to 5.4%.

Going from `Cc1c(Cl)cccc1NC(=O)Cn1nc(C(F)(F)F)c2c1CCC2` to `Clc1cccc(N2CCN(c3ncnc4c3nc3n4CCCC3)CC2)c1`, the inhibition falls from 7.12% to -5.77%.

Going from `COC(=O)c1cc2oc3ccccc3c2n1CC(=O)Nc1cc(OC)cc(OC)c1` to `Cc1cc(C)cc(C(=O)Nc2c(C(=O)Nc3ccccc3F)oc3ccccc23)c1`, the inhibition rises from -8.58% to -1.78%.

First: COc1cccc2cc(-c3cn4c(n3)sc3cc(F)ccc34)c(=O)oc12
Second: CC(=O)N(Cc1cccnc1)c1nc2ccc(F)cc2s1
The inhibition of the first is lower: -14.6% for the first, -12.4% for the second.

First: Cc1cccc(-c2noc(CNC(=O)c3ccco3)n2)c1
Second: Cc1oc(-c2ccc(C(=O)NCc3ccc(F)cc3)cc2)nc1CS(=O)c1ccccc1 (stereo not drawn)
The inhibition of the first is lower: -8.45% for the first, 3.1% for the second.

First: Brc1ccc(CNCCCSc2nnnn2-c2ccccc2)cc1
Second: CC(C)c1ccc(NC(c2nnc(-c3ccccc3)o2)c2ccc(F)cc2Cl)cc1 (stereo not drawn)
The inhibition of the first is lower: -15% for the first, -2.61% for the second.

First: COc1ccccc1-c1nnc(SCC(N)=O)o1
Second: COc1ccc(NC(=O)Cn2cnc3ccc(S(=O)(=O)N4CCC(C)CC4)cc3c2=O)cc1Cl
The inhibition of the first is higher: -2.88% for the first, -3.69% for the second.

For `CCOc1ccc(/C=C/c2nc(C#N)c(NC3CCCCC3)o2)cc1`, the inhibition was -7.7%.

For `CC1CCN(CCOc2ccc(Cl)c(Cl)c2)CC1`, the inhibition was active: 83.6%.
In the case of `O=C(NCCN1C(=O)S/C(=C\c2cccnc2)C1=O)c1ccc([N+](=O)[O-])s1`, the inhibition is reported as active: 33.2%.
In the case of `COc1cccc(C(=O)Nc2cccc(OCC(=O)O)c2)c1`, the inhibition is reported as active: 33.7%.
With `Nc1ccccc1C(=O)NCc1ccc(Cl)cc1` the inhibition was active: 30.4%.
With `N/C(=N\c1nc2c(c(=O)[nH]1)CCC2)Nc1ccccc1` the inhibition was active: 30%.
`CCN1CCN(S(=O)(=O)c2ccc(Cl)c(C(=O)NC3CCCC3)c2)CC1` was tested, and the inhibition was active: 46.6%.

From PubChem BioAssay AID485344 (National Center for Advancing Translational Sciences (NCATS), 2010)
